From the supplement of paper PMC12217912
The other results are listed elsewhere or left out. Sequences were assembled here from the parent chain. Inactive controls read about 0.05.

B1: TEV protease; numbered along this chain (parent)
chain: MGESLFKGPRDYNPISSSICHLTNESDGHTTSLYGIGFGPFIITNKHLFRRNNGTLVVQSLHGVFKVKDTTTLQQHLVDGRDMIIIRMPKDFPPFPQKLKFREPQREERICLVTTNFQTKSMSSMVSDTSCTFPSGDGIFWKHWIQTKDGQCGSPLVSTRDGFIVGIHSASNFTNTNNYFTSVPKNFMELLTNQEAQQWVSGWRLNADSVLWGGHKVFMVKPEEPFQPVKEATQL

Variants of: B1
Test: raw area under fraction-flipped curve 0-4 h after induction (AUC4h, not background-subtracted), DNA-recorder readout of cleavage of the substrate (dimensionless); higher = more cleavage of the substrate by the protease variant
Settings: temperature: 34 °C; time window: 0-4 h after rhamnose induction
Method: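 In vivo DNA recorder in E. coli TOP10(DE3) ΔrhaA at 34 °C. Each TEVp single-site mutant (parent TEVp 0) is paired with a single-site variant of the 7-mer TEVs (canonical ENLYFQ|S). The substrate sits between flexible linkers in a Bxb1-sfGFP-TEVs-SsrA fusion, so cleavage stabilises Bxb1 and speeds flipping of a recombination array, read by NGS. The value is the raw area under the fraction-flipped curve over 0-4 h after rhamnose induction (AUC4h), with ≥20 reads per time point. It is not background-subtracted; inactive controls average about 0.047.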
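Note: Bxb1 expression induced with 0.2% (w/v) L-rhamnose at OD600 near 0.5, cultures sampled hourly, flipped fraction per protease–substrate barcode pair counted by paired-end Illumina sequencing.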

Variant	area with substrate ENLYCQS	area with substrate ENLYDQS	area with substrate ENLYEQS	area with substrate ENLYGQS	area with substrate ENLYIQS	area with substrate ENLYKQS	area with substrate ENLYMQS	area with substrate ENLYNQS	area with substrate ENLYPQS	area with substrate ENLYRQS	area with substrate ENLYSQS	area with substrate ENLYWQS	area with substrate ENLYYQS	area with substrate ENLYHQS	area with substrate ENLYQQS	area with substrate ENLYTQS	area with substrate ENLYVQS	area with substrate ENLYLQS
T23I	0.054	0.0548	0.0591	0.0629	0.128	0.0608	0.0762	0.0719	0.0718	0.065	0.08	0.0646	0.0639	–	–	–	–	–
T23R	0.135	0.0592	0.0629	0.064	0.103	0.063	–	0.0759	0.08	0.056	0.0832	0.0781	0.0659	0.0572	0.0609	0.0806	0.113	–
M83W	0.0683	0.054	–	0.077	0.0533	0.0725	0.0654	0.0678	0.049	–	0.0746	0.0522	0.0515	0.0535	–	0.0616	0.0595	–
L56V	0.0825	0.0608	0.0622	0.0533	0.104	0.0332	0.0864	0.0633	0.0835	–	0.0721	0.0573	0.0564	0.0661	0.0615	–	–	–
Q75C	0.118	0.0885	0.0683	0.067	0.111	0.0554	–	0.0672	0.063	0.0583	–	0.0672	–	0.05	0.0614	–	–	–
E107W	0.0717	0.0608	–	–	0.117	–	0.0713	0.075	0.0857	–	–	0.0656	–	0.0674	–	–	–	–
T44D	0.0542	0.0429	0.0444	0.0427	0.0324	0.0332	0.0499	0.039	0.0391	–	0.0449	0.0492	0.0403	0.0419	0.0368	–	0.0415	0.0446
T30W	0.0943	0.0565	0.0718	0.0804	–	0.0498	–	0.0747	0.0951	0.0831	0.0611	0.0986	–	–	0.0606	–	0.146	0.0913
Q105M	0.11	0.0711	0.065	0.0732	–	0.0631	0.0795	–	0.0813	0.0654	0.0687	0.085	0.0767	0.0664	–	0.112	0.104	–
C111L	0.111	0.0654	0.063	0.0646	0.133	–	0.0797	0.0633	0.077	–	0.085	–	–	0.0579	–	0.0588	–	–
D27Q	0.0798	–	0.0642	0.0577	0.121	0.0766	0.0796	0.0706	0.0744	–	0.0738	–	0.0611	0.0707	0.0444	0.107	–	0.098
R51A	0.0885	0.0323	–	0.0681	0.146	0.0646	–	0.0748	0.0878	0.0556	0.0756	0.0924	–	0.0697	–	0.0462	0.184	–
E103Q	0.113	0.05	0.0691	0.0624	0.118	0.0597	0.078	0.0657	0.0785	0.0603	–	0.086	0.0473	0.0675	0.062	–	0.103	0.0723
K98I	0.0634	0.0546	0.0688	0.0623	0.132	0.063	0.0811	0.0759	0.0565	0.0652	0.0832	0.0723	0.0675	0.0263	0.0663	0.0907	0.119	0.0787
V67D	0.0604	0.0524	0.0448	–	–	0.0563	0.049	0.066	0.0362	–	–	0.0872	–	0.0554	–	0.0508	0.0783	–
N45I	0.0728	0.0556	0.0581	0.0784	–	0.0591	0.063	0.0526	0.0601	0.0555	0.0592	–	–	0.0408	0.0571	0.0563	0.0723	–
P94I	0.061	0.0617	0.06	0.0642	–	0.0671	0.0923	0.0552	0.0501	–	0.0887	0.0775	0.0624	0.0647	–	0.0795	0.132	–
P94G	0.0993	–	0.0836	0.064	0.167	0.0189	0.0931	0.0573	0.0719	–	0.0818	0.103	0.084	0.064	–	0.0972	0.144	0.0587
G54R	0.0682	0.0659	0.0649	0.0592	0.0673	0.0675	0.0561	0.0622	0.062	0.057	0.0598	0.0668	0.0556	0.0641	0.0577	–	0.0753	0.0571
I84W	0.0721	0.0572	0.0596	0.0549	–	0.0581	0.0572	0.0551	0.0608	0.0489	0.0576	0.0453	0.0643	0.0546	0.0514	0.0501	0.0583	–
H21Y	0.0733	0.068	0.0527	0.0679	0.11	0.0365	0.0808	–	–	0.0668	0.0735	0.0713	0.0499	0.0657	–	–	0.109	–
H21W	0.125	–	0.0637	0.103	0.184	–	0.0625	0.0686	0.0643	0.0521	0.0845	–	0.0662	0.0622	0.0728	–	0.124	–
I42Y	0.0442	0.0467	0.0445	0.0536	0.0545	0.0437	–	0.0542	0.0384	–	0.0481	–	0.0332	0.0454	0.0503	–	0.0352	–
I42C	0.0747	0.0637	0.0603	0.0601	0.107	0.0234	0.0765	0.0621	0.0618	0.0661	0.0648	0.0649	0.0654	0.06	0.064	0.0788	0.113	0.083
F38P	0.0242	–	0.0427	0.0869	0.0439	0.0441	0.04	0.0465	0.0565	0.039	0.0309	0.0396	0.0384	–	0.0422	0.0489	0.0379	–
